In all, about 33,000 sequences were measured (“E-score (-0.5 to 0.5)”: median about -0.053, highest 2% from about 0.37 on). The list shows a part of the results.
biological target: Hap1 (UniProt P0CE41); test: PBM E-score (8-mer binding enrichment) (E-score (-0.5 to 0.5)); higher = stronger / more preferred TF binding; most listed sequences are background and not binding sites; conditions: protein concentration: 200 nM; construct: GST-DNA-binding domain
Summary of the method: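 For each ungapped eight-base word taken together with its reverse complement, the Universal PBM Analysis Suite assigned an E-score. Binding data came from GST-tagged yeast transcription factors, applied at about 100-200 nM, on universal all-10-mer Agilent arrays made double-stranded by primer extension. Fluorescent anti-GST marked bound protein, and scans were normalised with masliner.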

Chain of UniProt P0CE41 (P0CE41 whole entry, the tested form may be a part): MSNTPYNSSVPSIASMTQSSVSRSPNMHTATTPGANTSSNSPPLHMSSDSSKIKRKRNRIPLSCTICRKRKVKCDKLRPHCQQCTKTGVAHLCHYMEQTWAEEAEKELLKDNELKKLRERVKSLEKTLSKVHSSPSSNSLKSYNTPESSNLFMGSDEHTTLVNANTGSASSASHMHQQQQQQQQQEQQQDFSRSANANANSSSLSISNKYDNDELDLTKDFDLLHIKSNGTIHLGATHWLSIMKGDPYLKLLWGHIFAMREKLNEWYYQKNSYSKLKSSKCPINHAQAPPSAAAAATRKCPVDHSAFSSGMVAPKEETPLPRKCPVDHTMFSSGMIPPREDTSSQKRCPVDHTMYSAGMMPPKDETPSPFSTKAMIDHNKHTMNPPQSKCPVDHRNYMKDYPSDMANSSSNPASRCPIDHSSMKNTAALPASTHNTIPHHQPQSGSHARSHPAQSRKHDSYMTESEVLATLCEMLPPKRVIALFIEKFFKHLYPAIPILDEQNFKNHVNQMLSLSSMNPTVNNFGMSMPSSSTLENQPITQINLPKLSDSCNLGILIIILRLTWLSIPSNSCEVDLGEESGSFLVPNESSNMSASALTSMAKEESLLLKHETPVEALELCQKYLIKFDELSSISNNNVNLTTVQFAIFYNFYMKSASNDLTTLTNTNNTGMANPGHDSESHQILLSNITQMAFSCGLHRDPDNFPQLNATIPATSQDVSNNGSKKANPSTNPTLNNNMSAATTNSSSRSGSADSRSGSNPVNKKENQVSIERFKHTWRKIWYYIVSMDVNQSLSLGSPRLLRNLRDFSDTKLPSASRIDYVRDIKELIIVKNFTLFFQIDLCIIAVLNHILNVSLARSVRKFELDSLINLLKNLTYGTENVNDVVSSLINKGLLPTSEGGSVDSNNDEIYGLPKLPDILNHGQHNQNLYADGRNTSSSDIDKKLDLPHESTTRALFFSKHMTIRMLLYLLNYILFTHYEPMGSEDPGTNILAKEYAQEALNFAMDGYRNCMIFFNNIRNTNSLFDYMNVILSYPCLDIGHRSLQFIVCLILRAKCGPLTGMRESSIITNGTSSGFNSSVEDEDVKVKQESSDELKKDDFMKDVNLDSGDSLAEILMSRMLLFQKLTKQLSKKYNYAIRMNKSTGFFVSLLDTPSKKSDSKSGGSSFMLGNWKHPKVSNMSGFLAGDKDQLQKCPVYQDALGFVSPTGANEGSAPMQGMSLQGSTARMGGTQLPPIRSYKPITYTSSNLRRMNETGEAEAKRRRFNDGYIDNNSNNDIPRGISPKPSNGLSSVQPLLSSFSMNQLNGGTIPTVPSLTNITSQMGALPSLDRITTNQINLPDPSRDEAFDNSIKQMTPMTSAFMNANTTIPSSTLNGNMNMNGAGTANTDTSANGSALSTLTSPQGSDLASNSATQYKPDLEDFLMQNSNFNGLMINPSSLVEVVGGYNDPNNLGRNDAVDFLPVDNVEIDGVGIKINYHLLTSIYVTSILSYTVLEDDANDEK

| Sequence | PBM E-score |
| --- | --- |
| GAGGCTGA | -0.191 |
| ATATCTCA | 0.108 |
| GGCGAGTA | 0.0239 |
| TACGAGTA | -0.072 |
| AAGTAAGC | -0.0755 |
| CCGAGGTC | 0.368 |
| TCTCCTCA | -0.138 |
| GGAGTCTA | -0.0797 |
| ATCCTTAA | -0.224 |
| CTTCCCAA | -0.197 |
| GATATAAC | 0.215 |
| GTGGGGGA | -0.194 |
| ATCACCCG | 0.325 |
| CGATTGGC | 0.0158 |
| CTCGTCCC | -0.0345 |
| CTCCAGCC | -0.0496 |
| ATTATTTG | 0.0294 |
| ACCTTTCG | 0.0668 |
| GTTCTGGA | -0.231 |
| TCCCGAAA | 0.285 |
| AGTGGTAT | -0.1 |
| AATCGCCA | -0.106 |
| TCAAGGAA | -0.123 |
| AAGAGTGC | -0.125 |
| ACAAGTAT | -0.0894 |

| Sequence | PBM E-score |
| --- | --- |
| AATTTGGT | 0.0361 |
| ACCACCCA | -0.0991 |
| ATGCTCCG | 0.344 |
| AGACTTAC | -0.17 |
| AATGGATG | -0.171 |
| ACAGGTAA | -0.0927 |
| ACACAACA | -0.134 |
| AATGTTTC | 0.0303 |
| CGACGTTA | 0.0906 |
| ACTACGGC | 0.0924 |
| GACGCGGC | 0.00827 |
| CAAGCGGC | 0.144 |
| ACTTGACA | -0.22 |
| CTCTTTAC | 0.085 |
| GTTGTCAA | -0.134 |
| AGAAAACC | 0.0688 |
| GGAATACC | 0.2 |
| GCTATTAA | 0.00159 |
| CCCGGTCA | 0.262 |
| GCACATGA | -0.293 |
| TCACTTAA | -0.167 |
| ACCATTAG | -0.0367 |
| GTAATACA | 0.00268 |
| ATATTGAC | -0.0686 |
| AAGCCCCT | -0.00622 |

| Sequence | PBM E-score |
| --- | --- |
| GTCTCTGA | -0.0538 |
| CGCTTTAA | 0.0294 |
| AATGTCAC | -0.148 |
| ATTCTGTC | -0.103 |
| ACATAGCT | -0.179 |
| ACATGGCC | 0.0386 |
| ACAACCTA | -0.174 |
| TTGACCAA | -0.0424 |
| ACGAGTCG | -0.116 |
| CGAAGGAG | 0.0326 |
| CGTAACAA | 0.0657 |
| ATAAACTA | 0.0419 |
| GAGAGACC | -0.108 |
| ACTCGAAA | -0.121 |
| ACGTCCGC | 0.357 |
| TACATCTA | -0.157 |
| ACAACCGT | -0.165 |
| TGATAGCA | -0.126 |
| CTGTCCGC | 0.113 |
| ATGTAAAT | -0.0606 |
| AAATGATA | 0.0825 |
| GACTTTCA | -0.0117 |
| GACAACCC | 0.0988 |
| AGCGGATG | 0.0971 |
| ATACACGG | 0.0668 |

| Sequence | PBM E-score |
| --- | --- |
| CGGCACTC | 0.0678 |
| ATTCAGAA | -0.14 |
| AGAGCTAC | 0.00866 |
| CCGAAGGA | 0.288 |
| CACGATCC | 0.0112 |
| AGGGGCCC | -0.00787 |
| GCACAAGC | -0.133 |
| CTAATTAG | -0.056 |
| AAGCGCTT | 0.118 |
| CCGAGACA | 0.257 |
| CCGTATAC | 0.0873 |
| ATCCGGTG | 0.411 |
| CATGGCCC | 0.135 |
| CTATAGCC | 0.0206 |
| CGGTGCAC | 0.0646 |
| ACTATTCA | -0.185 |
| CGGTTCCC | 0.177 |
| GGGACAAA | 0.0637 |
| CTCCAGAC | -0.155 |
| TAGGTTAA | 0.0421 |
| CAACCGCC | 0.16 |
| CTTATGTC | 0.105 |
| TCCGTTAA | 0.408 |
| TAGAGTAA | -0.0213 |
| AAGGTTCG | 0.0812 |

| Sequence | PBM E-score |
| --- | --- |
| AGATCAAG | -0.109 |
| GTTGGCAA | -0.171 |
| TATGTGAA | -0.236 |
| GCCTAACC | -0.127 |
| CAAAGTCC | 0.17 |
| CAGCGCCG | 0.219 |
| CCCCTTCG | -0.0372 |
| GCACATAA | 0.073 |
| CCAGGTAC | -0.269 |
| AACCTGCC | -0.179 |
| CGGAGAAA | 0.413 |
| CAGCAGAC | -0.147 |
| CCGTGTCC | 0.226 |
| ACGTATCA | -0.0537 |
| CCAGGTAA | -0.0912 |
| AACTAATA | 0.186 |
| GGGAATCA | -0.0963 |
| CAAAGCCG | 0.209 |
| AAGGGACG | -0.0437 |
| ACAAAAGT | -0.134 |
| TAAAGGCA | -0.0704 |
| CGAGTAGA | -0.0709 |
| ACAAAATC | 0.0168 |
| ACTTGATG | -0.181 |
| ACCTGCGT | 0.0285 |

| Sequence | PBM E-score |
| --- | --- |
| CGCATACG | -0.00047 |
| CCTTAAGG | 0.103 |
| ATCAGTCC | -0.0617 |
| GGGTTGAA | -0.0933 |
| CGCTAGGA | -0.107 |
| GAAGTAGC | 0.0793 |
| AACCACAT | -0.119 |
| GATGGGGA | 0.0487 |
| GTGGCCAA | -0.236 |
| GGCCTTTA | 0.0935 |
| CATGAACG | -0.147 |
| AGTCTCAC | -0.131 |
| GGGGGCGA | -0.122 |
| CTGCGTAC | -0.231 |
| CCCAAGCC | 0.00674 |
| CAGCCACA | -0.12 |
| AATCGATT | -0.117 |
| CTGGCACC | -0.118 |
| ATAAGGAC | -0.0961 |
| CAACGGTA | 0.0998 |
| ACACGTGC | -0.151 |
| CACAGCAG | -0.345 |
| ACGGGAGC | 0.0123 |
| CCAGATGA | -0.11 |
| TAGGTCCA | -0.114 |

| Sequence | PBM E-score |
| --- | --- |
| ATTATCAC | 0.0984 |
| TATCTTAA | -0.0898 |
| AATACGTA | -0.0255 |
| ATTAGCAA | 0.00411 |
| AAAGGTTA | -0.133 |
| ACCGCCGC | 0.233 |
| ACCGCGTC | 0.107 |
| TATCGTAA | 0.141 |
| AAAAGCAG | -0.208 |
| GGTGATAC | 0.14 |
| GCATGGCA | 0.039 |
| CACCGCAC | 0.0364 |
| GCGAAACC | 0.126 |
| CAGCTTGG | -0.129 |
| ACGGGTAA | 0.0344 |
| CTAACCTC | -0.00528 |
| AGGCCCAT | -0.13 |
| GAGGCCCC | 0.021 |
| AAAGGAAC | 0.0896 |
| TCTATAGA | -0.183 |
| GCGCCCAA | 0.0445 |
| CCGAGAGC | 0.396 |

From the supplement of paper PMC3334620
